From PubChem BioAssay (NCI)
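Briefly, cells in 96-well plates were exposed to five compound concentrations for 48 h, and endpoints were estimated by linear interpolation. Here, GI50 denotes the concentration required for 50% inhibition of growth. TGI marks complete inhibition of growth.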

Test system: NCI-H322M lung
Assay: NCI anticancer screen, dose series, 48 h

Compound | GI50 [µM] | TGI [µM]
Cc1ccc(NC(=O)Cc2ccc(/C=C/C(=O)c3ncc[nH]3)cc2)cc1 | 6.06 | > 25
CC1=C(/C=C/C(=O)O)C(C)(C)CCC1 |  | > 100
N#CC(C(=O)/C(=N/NC(=O)c1ccccc1O)C(C#N)c1ccccc1)c1ccccc1 (stereo unspecified) |  | > 100
O=C(NCCCCN(CCCNC(=O)C(F)(F)F)Cc1ccc2ccccc2c1)C(F)(F)F |  | 41.4
O=Cc1c2ccccc2n2ccc3c4ccccc4[nH]c3c12 |  | > 10
CCOc1ccccc1NC(=O)c1cc2ccccc2cc1O | 2.91 | 15.9
CN(CCCCCl)P(=O)(OCc1ccc([N+](=O)[O-])o1)OCC1OC(n2ccc(N)nc2=O)C(F)(F)C1O (stereo unspecified) | 3.49 | > 27.2
COC(=O)C1=C(C)NC(C)=C(C(=O)OC)C1/C=C(\Cl)c1ccc(Cl)c(Cl)c1 | 17.5 | 33.4
CC1(Cl)CC2OC3(Br)C=CC(C)(O)C2(CC1Br)C3(C)C (stereo unspecified) |  | > 100
O=Cc1cc([N+](=O)[O-])no1 |  | > 100
C=CCc1cc(-c2cc(CC=C)c(O)c(CNC)c2)cc(CNC)c1O |  | 30.8
O=c1cc(-c2ccc(O)cc2)n(C2CC2)c2ccccc12 |  | 6.92
Cc1cc(Cl)cc2c(N=Nc3ccccc3[N+](=O)[O-])c(O)[nH]c12 |  | > 100
Nc1cc2c(nnn2C2OC(COCc3ccccc3)C(OCc3ccccc3)C2OCc2ccccc2)c(=O)[nH]1 (stereo unspecified) |  | > 100
Cc1ccc(Cc2n[nH]c(=O)n2-c2ccccc2)cc1 |  | > 100
CC(C)(C)n1c(=O)[nH]n(C2NN=Cc3cccc4cccc2c34)c1=O (stereo unspecified) |  | > 100
CCN1C=C/C(=C\C=C/c2cc[n+](CC)c3ccccc23)c2ccccc21 |  | 20
c1ccc2c(c1)Nc1ccccc1[P+]21c2ccccc2Nc2ccccc21 |  | 3.66
CS(=O)(=O)OC1CN2CCC1CC2 (stereo unspecified) |  | > 100
S=C1Cc2c(-c3ccc(Cl)cc3)cc(-c3ccccc3)nc2-c2ccccc2N1 |  | 29.4
CCOCN1COCN=C1NC#N |  | > 100
CC(=O)Nc1ccc(N=C2C(c3ccccc3)=C(SC3=C(c4ccccc4)C(=Nc4ccc(NC(C)=O)cc4)c4ccccc43)c3ccccc32)cc1 |  | > 100
O=C1c2cccnc2C(=O)C2C3C=CC(C3)C12 (stereo unspecified) |  | 93.3
CCOC(=O)c1sc2ncn(Cc3cccc(Br)c3)c(=O)c2c1C | 23.1 | > 100
CO/C=C(/C(=O)OC)c1ccccc1[C@@H]1CC1c1cccc(F)c1 (stereo partly specified) |  | > 100
CC(C)CCC[C@@H](C)[C@H]1CC[C@H]2[C@@H]3CC[C@H]4C[C@H](N)CC[C@]4(C)[C@H]3CC[C@]12C |  | 27.1
